# In all, about 410,000 compounds went through this assay and about 5,000 (1.2%) were called active. Inconclusive results, whose numbers are uncertain, are shown with a selection of clear calls. The call rests on the fitted dose curve; in most records, active means well fitted inhibition curve with a large enough effect; inconclusive means small, poorly fitted or top-dose-only effect; inactive means no such curve, though single readings can be large or run the other way. Potencies beside an inconclusive call are fits to weak or partial responses and may not hold up.
# Assay: qHTS for Inhibitors of TGF-b; further: nearly all actives have a fitted effect of over 65% in size
# Conditions: HepG2 CAGA-GFP TGF-b/SMAD3 reporter, GFP fluorescence, 18 h, TGF-beta stimulated, 500 pg/mL final; series mostly up to 46.1 µM; activity, negative = inhibition: at the top concentration
# Procedure, shortened: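 Cell-based qHTS in HEPG2 carrying a CAGA-GFP Smad reporter; compounds added before 500 pg/mL final TGF-beta, 18 h incubation at 37 degrees C, GFP fluorescence quantified per cell by imaging cytometry.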
# On the % scale 0 is the no-effect control and ±100 the full control effect; potency means the concentration at half of the fitted maximal effect; tags describe the fitted curve by direction and shape.
SMILES,"activity, negative = inhibition",Potency
Cc1ccc(C)c(Cn2cnc3ccccc3c2=O)c1,inactive: -23.8%,
COc1cccc(CNC(=O)CCNS(=O)(=O)c2ccc3c(c2)CCCC(=O)N3)c1,inactive: -5.84%,
COc1ccccc1NS(=O)(=O)c1cc(NC(=O)c2ccc(Cl)nc2)ccc1Cl,,"inconclusive: 17.8 µM [inhibitor, single point]"
COc1ccc(C(C#N)=C2C=CC(=NO)C(C)=C2Cl)cc1,,"inconclusive: 3.16 µM [inhibitor, partial curve, poor fit]"
Clc1ccc(-c2cc(CN3CCOCC3)no2)cc1,inactive: 0%,
O=C1N(Cc2cccnc2)C[C@@H]2C[C@@H](c3ccccc3C#Cc3ccccc3)N3CCC[C@@]123,,"inconclusive: 35.5 µM [inhibitor, single point]"
COC(=O)c1cc(OC)c(OC)cc1NC(=O)c1ccc2c(c1)CCN2S(=O)(=O)c1ccccc1,,"inconclusive: 0.0891 µM [inhibitor, full curve, poor fit]"
O=C(N/N=C/C=C/c1ccco1)c1cnccn1,inactive: 6.61%,
COc1cccc(-c2cc3nc(-c4ccccc4)cc(N4CCCC(O)C4)n3n2)c1 (stereo not given),,active: 12.6 µM
CCOC(=O)N1CCC(NC(=O)c2ccc3c(c2)N(Cc2ccc(Cl)cc2)C(=O)c2ccccc2S3=O)CC1 (stereo not given),,"inconclusive: 35.5 µM [inhibitor, single point]"
CC1CCN(C(=S)NC(=O)C2CCCCC2)CC1,inactive: -1.35%,
CC(C)NC(=O)Nc1cccs1,,"inconclusive: 3.55 µM [inhibitor, single point]"
Cc1cccc(/C=C/C(=O)c2ccc([N+](=O)[O-])o2)c1,,active: 2.24 µM
CCOC(=O)c1cccc(NC(=O)c2sc3nc[nH]c(=O)c3c2C)c1,,"inconclusive: 10 µM [inhibitor, partial curve, poor fit]"
CCc1ccc2occ(CC(=O)N(Cc3ccc(N(C)C)cc3)C3CCS(=O)(=O)C3)c2c1 (stereo not given),,"inconclusive: 35.5 µM [inhibitor, single point]"
COc1cc(-c2ccno2)ccc1S(=O)(=O)N1CCN(c2ccc(F)cc2)CC1,,"inconclusive: 35.5 µM [inhibitor, single point]"
Cn1nccc1C(=O)NC1CCN(Cc2ccccc2)CC1,inactive: 1.29%,
CCOC(=O)c1c(Nc2cccc(C)c2)nnc(-c2ccccc2)c1-c1ccccc1,,"inconclusive: 12.6 µM [inhibitor, partial curve, poor fit]"
O=C(/C=C/c1ccnc2ccccc12)c1cccs1,,"inconclusive: 5.01 µM [inhibitor, full curve, poor fit]"
CC(C)CCNC1=NCCCCC1,,"inconclusive: 12.6 µM [inhibitor, partial curve, poor fit]"
